Data taken from patent publication US4603125A, “Substituted o-phenylenediamine acridine compounds having antitumor activity” (Development Finance Corporation of New Zealand, priority 1982, dated 1986).

What follows are compounds tested on P388 Leukemia (assay: P388 leukemia in vivo (increase in lifespan)). Conditions: at the stated dose (OD).
In the case of `CNc1cc(NS(C)(=O)=O)ccc1Nc1c2ccccc2nc2cc(C)ccc12` [Compound 3], the “active, P388” value is reported as “Y (implies a significant value of drug activity at the stated dose)”.
With `CNc1cc(NS(C)(=O)=O)ccc1Nc1c2ccccc2nc2cc(OC)ccc12` [Compound 4] the “active, P388” value was “Y (implies a significant value of drug activity at the stated dose)”.
`CNc1cc(NS(C)(=O)=O)ccc1Nc1c2ccccc2nc2cc(F)ccc12` [Compound 5] was tested, and the “active, P388” value was “Y (implies a significant value of drug activity at the stated dose)”.
In the case of `CNc1cc(NS(C)(=O)=O)ccc1Nc1c2ccccc2nc2cc(Cl)ccc12` [Compound 6], the “active, P388” value is reported as “Y (implies a significant value of drug activity at the stated dose)”.
For `CNc1cc(NS(C)(=O)=O)ccc1Nc1c2ccccc2nc2cc(Br)ccc12` [Compound 7], the “active, P388” value was “Y (implies a significant value of drug activity at the stated dose)”.
With `CNc1cc(NS(C)(=O)=O)ccc1Nc1c2ccccc2nc2cc(I)ccc12` [Compound 8] the “active, P388” value was “Y (implies a significant value of drug activity at the stated dose)”.
`CNc1cc(NS(C)(=O)=O)ccc1Nc1c2ccccc2nc2cc([N+](=O)[O-])ccc12` [Compound 9] was tested, and the “active, P388” value was “Y (implies a significant value of drug activity at the stated dose)”.
With `CNc1ccc2c(Nc3ccc(NS(C)(=O)=O)cc3NC)c3ccccc3nc2c1` [Compound 10] the “active, P388” value was “Y (implies a significant value of drug activity at the stated dose)”.
In the case of `CNc1cc(NS(C)(=O)=O)ccc1Nc1c2ccccc2nc2cc(NC(=O)OC)ccc12` [Compound 11], the “active, P388” value is reported as “Y (implies a significant value of drug activity at the stated dose)”.
With `CNC(=O)c1cccc2c(Nc3ccc(NS(C)(=O)=O)cc3NC)c3ccccc3nc12` [Compound 15] the “active, P388” value was “Y (implies a significant value of drug activity at the stated dose)”.
For `CNc1cc(NS(C)(=O)=O)ccc1Nc1c2ccc(C)cc2nc2c(C)cccc12` [Compound 16], the “active, P388” value was “Y (implies a significant value of drug activity at the stated dose)”.
`CNc1cc(NS(C)(=O)=O)ccc1Nc1c2ccc(OC)cc2nc2c(C)cccc12` [Compound 17] was tested, and the “active, P388” value was “Y (implies a significant value of drug activity at the stated dose)”.
In the case of `CNc1cc(NS(C)(=O)=O)ccc1Nc1c2ccc(Cl)cc2nc2c(OC)cccc12` [Compound 20], the “active, P388” value is reported as “Y (implies a significant value of drug activity at the stated dose)”.
For `CNc1cc(NS(C)(=O)=O)ccc1Nc1c2ccc(Br)cc2nc2c(C)cccc12` [Compound 21], the “active, P388” value was “Y (implies a significant value of drug activity at the stated dose)”.
For `CNc1cc(NS(C)(=O)=O)ccc1Nc1c2ccc(C)cc2nc2c(OC)cccc12` [Compound 22], the “active, P388” value was “Y (implies a significant value of drug activity at the stated dose)”.
In the case of `CNC(=O)c1cccc2c(Nc3ccc(NS(C)(=O)=O)cc3NC)c3ccc(Cl)cc3nc12` [Compound 23], the “active, P388” value is reported as “Y (implies a significant value of drug activity at the stated dose)”.
With `CNC(=O)c1cccc2c(Nc3ccc(NS(C)(=O)=O)cc3NC)c3cccc(C)c3nc12` [Compound 24] the “active, P388” value was “Y (implies a significant value of drug activity at the stated dose)”.
For `CNc1cc(NS(C)(=O)=O)ccc1Nc1c2cccc(C)c2nc2c(C)cccc12` [Compound 25], the “active, P388” value was “Y (implies a significant value of drug activity at the stated dose)”.
For `CNc1cc(NS(C)(=O)=O)ccc1Nc1c2cccc(OC)c2nc2c(OC)cccc12` [Compound 26], the “active, P388” value was “Y (implies a significant value of drug activity at the stated dose)”.
With `CS(=O)(=O)Nc1ccc(Nc2c3ccccc3nc3ccccc23)c(NCCO)c1` [Compound 27] the “active, P388” value was “Y (implies a significant value of drug activity at the stated dose)”.
For `CS(=O)(=O)Nc1ccc(Nc2c3ccccc3nc3cc(Br)ccc23)c(NCCO)c1` [Compound 28], the “active, P388” value was “Y (implies a significant value of drug activity at the stated dose)”.
In the case of `Cc1cccc2c(Nc3ccc(NS(C)(=O)=O)cc3NCCO)c3ccccc3nc12` [Compound 29], the “active, P388” value is reported as “Y (implies a significant value of drug activity at the stated dose)”.
With `CS(=O)(=O)Nc1ccc(Nc2c3ccccc3nc3ccccc23)c(NCC(O)CO)c1` (centres unmarked) [Compound 30] the “active, P388” value was “Y (implies a significant value of drug activity at the stated dose)”.
With `Cc1cccc2c(Nc3ccc(NS(C)(=O)=O)cc3NCC(O)CO)c3ccccc3nc12` (centres unmarked) [Compound 31] the “active, P388” value was “Y (implies a significant value of drug activity at the stated dose)”.
`CN(CCO)c1cc(NS(C)(=O)=O)ccc1Nc1c2ccccc2nc2ccccc12` [Compound 45] was tested, and the “active, P388” value was “Y (implies a significant value of drug activity at the stated dose)”.
In the case of `Cc1cccc2c(Nc3ccc(NS(C)(=O)=O)cc3N(C)CCO)c3ccccc3nc12` [Compound 46], the “active, P388” value is reported as “Y (implies a significant value of drug activity at the stated dose)”.
In the case of `CNc1cc(NP(=O)(OC)OC)ccc1Nc1c2ccccc2nc2ccccc12` [Compound 47], the “active, P388” value is reported as “Y (implies a significant value of drug activity at the stated dose)”.
In the case of `CNc1cc(NP(=O)(OC)OC)ccc1Nc1c2ccccc2nc2cc(Br)ccc12` [Compound 48], the “active, P388” value is reported as “Y (implies a significant value of drug activity at the stated dose)”.
With `CNc1cc(NP(=O)(OC)OC)ccc1Nc1c2ccccc2nc2c(C)cccc12` [Compound 49] the “active, P388” value was “Y (implies a significant value of drug activity at the stated dose)”.
For `COC(=O)Nc1ccc(Nc2c3ccccc3nc3ccccc23)c(NCCO)c1` [Compound 51], the “active, P388” value was “Y (implies a significant value of drug activity at the stated dose)”.
With `CNc1cc(NC(=O)OC)ccc1Nc1c2ccccc2nc2cc(C)ccc12` [Compound 52] the “active, P388” value was “Y (implies a significant value of drug activity at the stated dose)”.
With `CNc1cc(NC(=O)OC)ccc1Nc1c2ccccc2nc2cc(F)ccc12` [Compound 53] the “active, P388” value was “Y (implies a significant value of drug activity at the stated dose)”.
For `CNc1cc(NC(=O)OC)ccc1Nc1c2ccccc2nc2cc(Cl)ccc12` [Compound 54], the “active, P388” value was “Y (implies a significant value of drug activity at the stated dose)”.
In the case of `CNc1cc(NC(=O)OC)ccc1Nc1c2ccccc2nc2cc(Br)ccc12` [Compound 55], the “active, P388” value is reported as “Y (implies a significant value of drug activity at the stated dose)”.
With `COC(=O)Nc1ccc(Nc2c3ccccc3nc3ccccc23)c(N(C)C)c1` [Compound 59] the “active, P388” value was “Y (implies a significant value of drug activity at the stated dose)”.
In the case of `CNc1cc(NS(=O)(=O)c2ccccc2)ccc1Nc1c2ccccc2nc2ccccc12` [Compound 60], the “active, P388” value is reported as “Y (implies a significant value of drug activity at the stated dose)”.
`O=S(=O)(Nc1ccc(Nc2c3ccccc3nc3ccccc23)c(NCCO)c1)c1ccccc1` [Compound 61] was tested, and the “active, P388” value was “Y (implies a significant value of drug activity at the stated dose)”.
In the case of `CNc1cc(NS(=O)(=O)c2ccc(N)cc2)ccc1Nc1c2ccccc2nc2ccccc12` [Compound 62], the “active, P388” value is reported as “Y (implies a significant value of drug activity at the stated dose)”.
